Experimental data taken from the supplement of paper PMC11417369.
± gives the standard deviation of the averaged measurements. Some of the results follow.

System: PfAP2-I AP2 domain 3 (GST-tagged)
Experiment: gcPBM binding intensity (ln(normalized median fluorescence intensity)); higher = stronger DNA binding
Method in brief: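 Binding of GST-tagged P. falciparum DNA-binding domains, expressed in E. coli and used at about 25 μg on average, was carried out for 1 h in 1× PBS containing 1% milk, 0.2 mg/ml BSA, 0.5% salmon testes DNA and 0.03% Triton X-100. The target was an Agilent 4 × 180k array of primer-extended double-stranded 36-bp intergenic genomic probes plus negative controls, read with Alexa488 anti-GST antibody at 488 nm. Binding intensity is the highest Masliner-normalised natural-log median intensity across replicate spots of either probe orientation.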

| Sequence | gcPBM binding intensity (ln) |
| --- | --- |
| AAAATGTATATTGGCGCATGTAAACAAATACTATAC [TGCATGCA_site385] | 8.1 ± 0.81 |
| TCAAAATGTGACATAAAAGAAAAAAAAAAAAAAAAA [CACACA_negctrl_site1092] | 8.12 ± 0.69 |
| GATAATAATAAGTGTACACATATATTTAGAAGAGTA [CACACA_site4245] | 8.3 |
| TGGGGTATTAAAAAAACACACAAAAAAAATATAAAG [CACACA_site1915] | 8.06 ± 0.42 |
| TCCTCATTTTATCATACACACTTGTTTATATGTGTG [CACACA_site6548] | 7.71 ± 0.42 |
| TATATATATATAATTTGTACACACAAATATGCATAT [XGTACX_site7297] | 9.26 ± 0.35 |
| ATATATAATAATTGTAGTACAATTAATAAATAAAAT [XGTACX_site3840] | 7.91 ± 0.33 |
| ATACGATTGCAGTCAAAAAGGAAAATATAAAAAAAG [XGTACX_negctrl_site124] | 7.93 ± 0.67 |
| AATATTTATAAATTTACACACACACCCGTGAACATA [CACACA_site1910] | 7.99 ± 0.71 |
| TTATCATTTTAAATCACACACATATATAAATATGTA [CACACA_site7359] | 7.8 ± 0.25 |
| AATGATTTTGATTAACGTACGTACAAATATATATAT [XGTACX_site6604] | 8.87 ± 0.28 |
| TATATATTATATAAATAAATAAATATATATATTTAT [TGCATGCA_negctrl_site270] | 7.28 ± 0.4 |
| TTATTAAATATAAATATGTATCTTTTATGTTATATT [CACACA_negctrl_site306] | 7.29 ± 0.44 |
| AGACCTATGATATATACACACATATAAATAAATATA [CACACA_site6725] | 7.74 ± 0.44 |
| AATGTTAAACTATGATGTACGGTTAAAAATATAATT [XGTACX_site893] | 7.92 ± 0.64 |
| TATTTTACGACATACCAAAAAAAAAAAAAAAAAATA [CACACA_negctrl_site1254] | 7.39 ± 0.42 |
| AAAAAAAAAAGACACACACACATAGACCTCCAATAG [CACACA_site7646] | 8.03 ± 0.45 |
| TAAATCCGCAGGCACACACACATATTAATAAAAAAA [CACACA_site3991] | 7.96 ± 0.59 |
| TGATATTATAGATATACACACATGTATGTATTTATA [CACACA_site6758] | 7.39 ± 0.39 |
| AAATTTAGTAAAAAATGTACGTAAAATGTAAAATAT [XGTACX_site1314] | 8.11 ± 0.61 |
| AAGGTAAACGGACACACACACATACAAAAAAAAAAA [CACACA_site5961] | 8.25 ± 0.64 |
| ATACTAACATTTTTTTGTACATATAACTATAAAATA [XGTACX_site1033] | 8.09 ± 0.47 |

| Sequence | gcPBM binding intensity (ln) |
| --- | --- |
| TATAAAAAAATAAAAGGAATATACTTGCAAAGGGTA [CACACA_negctrl_site1438] | 8.28 ± 0.59 |
| AACAATATATTGATATTATTTTAAGTGATTATATAT [XGTACX_negctrl_site205] | 7.45 ± 0.63 |
| AATAATAAAAAAAGTGCACACACATAATATATATAT [CACACA_site9100] | 9.95 ± 0.014 |
| TTTTTTTTTGTTATGTTGCACTTTGCCATATTATTA [GTGCAC_site9844] | 9.6 ± 0.19 |
| TTTCAAATGATTAAGTGTACATGTTTGCTTGCTCTT [XGTACX_site4697] | 7.49 ± 0.61 |
| AATTTTATTACTTTTACACACCTATATATCATTCAT [CACACA_site7525] | 8.09 ± 0.59 |
| ACCTTAAATAATACATGTACAAAAAAATTTATAATA [XGTACX_site1043] | 8.21 ± 0.13 |
| TAGGGATTATACCACACACACATACACATAAATATA [CACACA_site3178] | 7.86 ± 0.32 |
| AAGAATAAGGAAAAATGTACAGAATGCACATATGAA [XGTACX_site4705] | 8.37 ± 0.67 |
| ATGTATATATATATATGTACATATTTTTTATATGTA [XGTACX_site441] | 7.71 ± 0.42 |
| TTCTTTTTTTAAAGAAGTACTATATTTTAAATTATA [XGTACX_site5059] | 7.66 ± 0.11 |
| TTTAAAATAAATTAATAGAACAAAAATAAAATGATT [GTGCAC_negctrl_site375] | 7.78 ± 0.67 |
| AAAAAAAATACAAAAAGTACAAAAAATACAAAAAAA [XGTACX_site8844] | 7.68 ± 0.56 |
| TTTGAGTTACTATTCACACAAAATGGATAAATTAAT [CACACA_site5626] | 7.64 ± 0.52 |
| CACATAAATAATTAAACACACATTGTTCTAGACAAT [CACACA_site2378] | 7.52 ± 0.48 |
| TAGTTTTGAAAACAAACACACAAAAAAAAAAAAAAA [CACACA_site1692] | 8.05 ± 0.9 |
| TACATATTACTATTCAGTACATATTTTTTTTTCATT [XGTACX_site7468] | 7.59 ± 0.53 |
| TATATAGGTATATATACACACAACGGTTATAAATAT [CACACA_site4759] | 7.84 ± 0.6 |
| TATAAAGACACGAAAACACACATATGTAAATATATA [CACACA_site8056] | 7.91 ± 0.65 |
| AATATAAAAAATAATACACACACATGGCGACAAAAT [CACACA_site8765] | 8.39 ± 0.5 |
| ATGTAAGTAATTATCTGTACACATAATATATATATA [XGTACX_site2618] | 8.98 ± 0.13 |
| TTCTGTCAATATGCTTGTACGAAATATTTCGTAATT [XGTACX_site3182] | 8.04 ± 0.4 |

| Sequence | gcPBM binding intensity (ln) |
| --- | --- |
| AAAATAAACCCAGACACACTCATTAAAAAATATCAT [CACACA_site5903] | 7.65 ± 0.54 |
| TATTAATCCTTTTGCTTGGAAACATTCAAAAGGAAG [CACACA_negctrl_site1129] | 7.36 ± 0.47 |
| ATAAATAAATACTAGGCACACACACCGATATATATA [CACACA_site8649] | 8.32 ± 0.85 |
| ATATATATAAAATATGGTACAGAAAAAGTCTTGTTT [XGTACX_site8868] | 8.2 ± 0.73 |
| AATCCTTAAAATTAACGTACGAAATGAATTTATTAA [XGTACX_site956] | 7.67 ± 0.41 |
| TGGAGGTCATTACACAGTACCCAGGAAATCTACGGA [XGTACX_site2004] | 7.76 ± 0.61 |
| AAACCGTGGGAGCACACACACACACCCACCCATATA [CACACA_site332] | 8.35 ± 0.53 |
| ATAATAACAAAATATTAACACACATAACATATTATA [CACACA_site8906] | 7.53 ± 0.57 |
| ACAAAACAAAACAAAAGTACACAAAATAAATAAGAT [XGTACX_site6497] | 8.04 ± 0.7 |
| TTAAATAATGCCACCAGTACCCACTGAAAGAAAAAA [XGTACX_site5013] | 8.855 ± 0.078 |
| CAATTGATATTGAAATGTACTTTTTAGATGAACCTT [XGTACX_site2354] | 7.46 ± 0.44 |
| TATATTAAAATTTACTGTACTTTTTTTATTTTAAAA [XGTACX_site4077] | 7.8 ± 0.17 |
| AAAGATATAAATTACTGTACTAATGAAATTGGTAAA [XGTACX_site3582] | 7.67 ± 0.28 |
| ATATTAAAATTTTAATGTACATGCGTATGTAGGAAT [XGTACX_site1673] | 8.48 ± 0.38 |
| TATATTATATTTTTATGTACTTATTTATTTTGTTTC [XGTACX_site6145] | 7.81 ± 0.49 |
| AACATATATTTTTAATGTACAAGGTTGTAAAGAACT [XGTACX_site1405] | 8.03 ± 0.45 |
| ATGTATATATTCAATTGTACATGTTATATTTACACA [XGTACX_site1125] | 7.76 ± 0.33 |
| ATTGTATTAAAATGCACACATATCAAGAGGAATTTT [CACACA_site283] | 9.095 ± 0.064 |
| TGTAAAATATAAAAAGTGCATTTCTTTTAATATGAT | 9.96 ± 0.19 |
| AAAGAATAATTAAATACACACATATTGCAGTAAAAA [CACACA_site7201] | 8.99 ± 0.28 |
| AATATAATATAATGCACACATAAACAAAAAAAAAAT [CACACA_site1304] | 10.9 ± 0.96 |
| TTCATTTGAAAACTGTGTACTTAAAAATATACATAT [XGTACX_site176] | 7.82 ± 0.29 |

| Sequence | gcPBM binding intensity (ln) |
| --- | --- |
| ATATATTTAAATAAATGTACAAATCATAAATTCAAG [XGTACX_site1417] | 7.63 ± 0.44 |
| TTATTAGAAAAATGCACACCAAAAAAAAAAAAAAAA [CACACA_site2522] | 8.89 ± 0.25 |
| ATACATATACACATATGTACATATGAAAAGAAAAAT [XGTACX_site6445] | 8.06 ± 0.76 |
| TTTTTATTTTATAATATATTCCTTTTCCTTTCTTTC [CACACA_negctrl_site245] | 7.35 ± 0.79 |
| TACATATATATAAATACACACACACCCACCTTATAA [CACACA_site9346] | 8.34 ± 0.16 |
| TATATATATTGTGTATGTACATATATATAAATATTG [XGTACX_site433] | 8.2 ± 0.57 |
| ATATACATATATATATGTACTGAAAAGAAAAGAATT [XGTACX_site150] | 7.82 ± 0.57 |
| CATAAATACATACATACACACATATTTATATTTATA [CACACA_site7071] | 7.84 ± 0.54 |
| ATAATTATATATATATGTACATATTATATATATATA [XGTACX_site4526] | 8.955 ± 0.049 |
| TGTTTTTAAATTTAAATCAAAAAATAAAATAAAATA [GTGCAC_negctrl_site355] | 7.66 ± 0.54 |
| AAGATAACAAGTAATCAATCTAATTATTAATTATAT [CACACA_negctrl_site1713] | 7.12 ± 0.6 |
| AAAAATATGTGATAATGTACTTTTCATTTTTATTTT [XGTACX_site8544] | 7.49 ± 0.45 |
| TATAAAAAGCATAACACACACATGTCAATATAAATA [CACACA_site6648] | 7.84 ± 0.52 |
| TATTGAAACCCACACGAACACACGTATTTCATAAAC [CACACA_site251] | 7.77 ± 0.67 |
| ATGGACATTTTATAAATCACAATGGATATTTTATAA [CACACA_negctrl_site1830] | 7.5 ± 0.5 |
| TACTTTTATATAGAAAGTACATACAATTCATAGAAT [XGTACX_site2182] | 7.62 ± 0.54 |
| TTTTTTTTTTTTTTGTGTACATATAATGCACATTAT [XGTACX_site6505] | 11.1 ± 0.93 |
| TATACTCATTTTTATACACACTTGTTTTATAAAACG [CACACA_site4561] | 7.92 ± 0.67 |
| ATATATATATATATATGTACATATGTATGTGTTTGT [XGTACX_site397] | 9.28 ± 0.38 |
| CTATATGTATAAAGTTGTACAGTTTTTCAAAGTTAA [XGTACX_site6652] | 7.91 ± 0.22 |
| AAATTTATTATGAACATACACACAAAAAAAAAAAGT [CACACA_site2053] | 8.2 ± 0.52 |
| TACATCATCTATAAGGTGCATTTTAGTTCTATTAAA | 10.3 ± 0.58 |
